# Experimental data reported in PubChem BioAssay AID504832 (National Center for Advancing Translational Sciences (NCATS), 2011).
# The whole screen tested about 310,000 compounds, of which about 18,000 (5.8%) were called active. Inconclusive means that the source gave no clear call. Such entries were picked first, then a sample of the others. The call rests on the fitted dose curve; in most records, active means well fitted inhibition curve with a large enough effect; inconclusive means small, poorly fitted or top-dose-only effect, or another doubt; inactive means no such curve, though single readings can be large or run the other way. Potencies of inconclusive entries are left out as doubtful fits.
# Assay: Primary qHTS for delayed death inhibitors of the malarial parasite plastid, 48 hour incubation
# Settings: P. falciparum luciferase growth in erythrocytes; series mostly up to 28.7 µM
# How it was run: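 In quantitative HTS format, infected erythrocytes bearing luciferase-reporter parasites were treated for a single generation at 37 C. Luminescence after adding detection reagent served as the growth measure.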
# Potency means the concentration at half of the fitted maximal effect; tags describe the fitted curve by direction and shape.
row,SMILES,Potency
1,O=C(NCC(c1cccs1)N1CCOCC1)c1ccccc1NS(=O)(=O)c1ccc(Br)cc1 (stereo not given),"inconclusive [inhibitor, single point]"
2,CCn1c(SCC(=O)Nc2ccccc2)nnc1-c1ccc(S(=O)(=O)N2CCOCC2)cc1,active: 5.22 µM
3,CCOC(=O)c1cc(-c2ccc(F)cc2)nc2c1c(=O)[nH]c(=O)n2Cc1ccccc1,"inconclusive [inhibitor, full curve, poor fit]"
4,CN(C)S(=O)(=O)c1cccc(NC(=O)COc2ccccc2C(=O)NCc2ccccc2)c1,"inconclusive [inhibitor, partial curve]"
5,CC[N+](CC)(CC#CCO)CC#Cc1ccccc1,"inconclusive [inhibitor, single point]"
6,O=C(c1cc(C(=O)N2CCN(c3ccc(F)cc3)CC2)cc([N+](=O)[O-])c1)N1CCN(c2ccc(F)cc2)CC1,"inconclusive [inhibitor, partial curve, poor fit]"
7,Cc1cccc(/C=C2\Sc3ccc(C(=O)N4CCCCC4)cc3N(C)C2=O)c1,"inconclusive [inhibitor, partial curve]"
8,Cc1cc2c(cc(C(=O)OC(C(=O)NCc3ccco3)C(C)C)n2C)o1 (stereo not given),"inconclusive [inhibitor, single point]"
9,COc1ccccc1N1CCN(C(=O)c2cccc(N3C(=O)NC4CC3(C)Oc3c(OC)cccc34)c2)CC1 (stereo not given),"inconclusive [inhibitor, single point]"
10,Cc1ccc(NC(=O)CSCC(=O)N2CCCc3ccccc32)cc1,inactive
11,CC(C)c1nc(SCC(=O)Nc2ccc(N(C)C)cc2)c2ccccc2n1,active: 11.7 µM
12,Cc1ccc(NC(=O)c2cccc(-n3cnnn3)c2)cc1Cl,active: 9.28 µM
13,Cc1cccc(NC(=O)CSc2nc3ccccc3c(=O)n2C)c1,active: 14.7 µM
14,CCN1C(=O)Cc2cc(S(=O)(=O)N3CCOCC3)ccc21,inactive
15,O=c1[nH]c([N+](=O)[O-])nn1C(c1ccccc1)c1ccccc1,"inconclusive [inhibitor, single point]"
16,CCCC(c1nnnn1CC(=O)OCC)N(Cc1cc2c(C)cc(C)cc2[nH]c1=O)C1CCCC1 (stereo not given),active: 13.1 µM
17,Cc1nn2c(-c3cccc(NC(=O)c4ccco4)c3)nnc2c2ccccc12,active: 9.28 µM
18,Cc1ccccc1C1C(C#N)=C2N=C(N)c3c(sc4c3CCCCC4)N2C2=C1C(=O)CCC2 (stereo not given),active: 1.85 µM
19,Cc1cc(C)c(C(=O)N2CCCC(N3CCN(c4ccc(F)cc4)CC3)C2)o1 (stereo not given),"inconclusive [inhibitor, partial curve]"
20,OC(C#CCCN1CCCCC1)(c1ccccc1)C1CCCCC1 (stereo not given),"inconclusive [inhibitor, single point]"
21,CCC(C)(C)NC(=O)CN(C(=O)CCC(=O)Nc1ccccn1)c1ccc(F)c(Cl)c1,"inconclusive [inhibitor, partial curve, poor fit]"
22,O=C(NC(=S)N1CCc2ccccc21)c1ccccc1,"inconclusive [inhibitor, single point]"
23,CCOc1ccc2nc(NC(=O)CN3CCC(n4nnc5cc(C(F)(F)F)ccc54)CC3)sc2c1,"inconclusive [inhibitor, single point]"

row,SMILES,Potency
1,O=S(=O)(c1cccc(NC(=S)Nc2ccc(Br)cc2Cl)c1)N1CCOCC1,"inconclusive [inhibitor, single point]"
2,O=C(/C=C/c1ccc(Cl)cc1)NCCCN1CCOCC1,inactive
3,CCCCCN=C(N)N/N=C/c1c[nH]c2ccc(OC)cc12,active: 3.01 µM
4,O=[N+]([O-])c1ccc(N2CCN(c3ccccc3O)CC2)c(Cl)c1,"inconclusive [inhibitor, single point]"
5,Cc1ccc(NC(=O)CSc2n[nH]c(N)n2)cc1S(=O)(=O)N1CCOCC1,"inconclusive [inhibitor, single point]"
6,Cc1ccc(S(=O)(=O)n2nccc2-c2c(-c3ccccc3)noc2C)cc1,active: 5.86 µM
7,COc1cccc(OC)c1C(=O)Nc1cccc(C(C)=O)c1,inactive
8,O=C(CN1CCCCC1)Nc1ccccc1NC(=O)CN1CCCCC1,inactive
9,CCN(CC)S(=O)(=O)c1ccc2oc(C(=O)N3CCc4ccccc4C3)c(C)c2c1,"inconclusive [inhibitor, single point]"
10,COC(=O)C(C)Oc1ccc2c(c1)O/C(=C\c1cccc(Br)c1)C2=O (stereo not given),active: 13.1 µM
11,COc1ccc(-c2c(C#Cc3ccsc3)c3cc(-c4cccc5[nH]ccc45)ccc3n2C)cc1,active: 1.31 µM
12,O=C1SCCc2c1n(Cc1ccccc1)c1ccccc21,"inconclusive [inhibitor, partial curve, poor fit]"
13,CN1/C(=C\C(=O)C[n+]2ccc(C(=O)c3ccccc3)cc2)C(C)(C)c2ccccc21,active: 2.08 µM
14,Cc1cccc(-c2ncc(CN3CCN(CC(C)C)C(CCO)C3)cn2)c1 (stereo not given),inactive
15,O=S(=O)(c1ccc(C(F)(F)F)cc1)N1CCCN(c2ccc(C(F)(F)F)cn2)CC1,"inconclusive [inhibitor, single point]"
16,CN1CCN(C(=O)c2ccccc2NC(=O)c2ccccc2)CC1,inactive
17,CCOc1ccc(C2C(C(=O)OC)=CN(C(C)c3ccccc3)C=C2C(=O)OC)cc1 (stereo not given),"inconclusive [inhibitor, partial curve, poor fit]"
18,CSc1ccc(CNc2ccc(C)cc2)cc1,inactive
19,Cc1ccc(NC(=O)C2C(=O)N(C)c3ccccc32)cc1 (stereo not given),inactive
20,CCOC(=O)Cc1csc(NC(=O)CN2CCOCC2)n1,"inconclusive [inhibitor, full curve, poor fit]"
21,CCOC(=O)N1CCN(C(=O)c2cnn3c(C(F)(F)F)cc(-c4cccs4)nc23)CC1,"inconclusive [inhibitor, single point]"
22,COc1cc(Cl)cc(C(=O)O)c1OCC(=O)O,inactive
